# Laboratory results taken from article PMC4336329 (PLoS ONE, 2015).
# Among all 310,000 compounds or so, about 14,000 (4.5%) showed an effect of 50% or more. Effects have a minus sign here. The list shows a part of the results.
# Target: human ether-à-go-go-related gene (hERG) potassium channel (human, UniProt Q12809)
# Test: primary screen, population patch clamp on CHO cells stably expressing hERG
# 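Also: peak tail current of the secondary pulse compared with the same well before compound.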
# Chain of human ether-à-go-go-related gene (hERG) potassium channel (Q12809 whole entry, looked up): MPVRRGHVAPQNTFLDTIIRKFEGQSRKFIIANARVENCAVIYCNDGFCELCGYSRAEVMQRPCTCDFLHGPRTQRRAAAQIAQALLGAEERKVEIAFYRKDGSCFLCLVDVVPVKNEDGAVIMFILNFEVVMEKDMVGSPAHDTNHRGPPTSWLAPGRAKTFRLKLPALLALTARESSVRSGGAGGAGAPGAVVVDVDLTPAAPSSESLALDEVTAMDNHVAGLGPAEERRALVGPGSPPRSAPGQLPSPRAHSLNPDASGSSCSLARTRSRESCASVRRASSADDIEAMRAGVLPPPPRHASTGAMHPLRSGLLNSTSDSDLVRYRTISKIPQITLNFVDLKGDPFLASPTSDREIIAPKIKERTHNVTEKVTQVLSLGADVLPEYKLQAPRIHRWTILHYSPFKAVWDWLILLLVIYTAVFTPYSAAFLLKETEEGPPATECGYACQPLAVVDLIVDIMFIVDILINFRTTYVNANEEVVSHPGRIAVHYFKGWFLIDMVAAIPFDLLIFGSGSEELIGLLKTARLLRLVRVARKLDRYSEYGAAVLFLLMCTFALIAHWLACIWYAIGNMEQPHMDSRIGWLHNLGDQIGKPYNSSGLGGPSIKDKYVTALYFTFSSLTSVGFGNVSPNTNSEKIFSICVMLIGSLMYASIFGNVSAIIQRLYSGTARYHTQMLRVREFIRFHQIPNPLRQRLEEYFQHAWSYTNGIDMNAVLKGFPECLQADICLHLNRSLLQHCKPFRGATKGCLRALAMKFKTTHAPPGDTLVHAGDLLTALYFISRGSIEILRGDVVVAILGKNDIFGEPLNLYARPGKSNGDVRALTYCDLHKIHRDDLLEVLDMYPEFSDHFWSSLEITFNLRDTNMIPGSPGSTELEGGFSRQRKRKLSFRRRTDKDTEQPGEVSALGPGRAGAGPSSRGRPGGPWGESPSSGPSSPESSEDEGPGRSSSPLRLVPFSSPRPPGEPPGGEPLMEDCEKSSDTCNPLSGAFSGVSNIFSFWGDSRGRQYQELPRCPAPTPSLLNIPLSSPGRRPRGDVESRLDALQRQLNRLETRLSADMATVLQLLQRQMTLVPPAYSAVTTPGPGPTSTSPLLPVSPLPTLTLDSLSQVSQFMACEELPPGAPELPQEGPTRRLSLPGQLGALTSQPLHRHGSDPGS
row,SMILES,"hERG current change (%, negative = inhibition) at 10uM"
1,Cc1cc(C)c2c(CN3CCOCC3)cc(=O)oc2c1,-7.28%
2,C/C(=N\NC(=S)NCc1ccccc1)c1ccc(Cl)cc1,-2.11%
3,Nc1ncnc(Nc2cccc(F)c2)n1,-0.107%
4,CCCn1c(=S)[nH]c2cc(C(=O)N(CCO)Cc3ccccc3)ccc2c1=O,0.462%
5,COc1ccccc1-c1ccc(SCC(=O)NCCc2ccccc2)nn1,-38.9%
6,CCc1nnc(NC(=O)[C@@H](NC(=O)c2cc(OC)cc(OC)c2)C(C)C)s1,18.1%
7,COCCCN(C(=O)Cc1csc(-c2cccc(Cl)c2)n1)c1c(N)n(Cc2ccccc2)c(=O)[nH]c1=O,-48.5%
8,Cc1ccccc1N(C(=O)c1csnn1)C(C(=O)NC1CCCC1)c1ccncc1 (stereo not shown),4.31%
9,N/C(=N\OS(=O)(=O)c1ccccc1)c1ccncc1,12.5%
10,CN(C(=O)c1ccc(NC(=O)Cc2ccc(NC(=O)C3CCCN(C(=O)C4CCCCC4)C3)cc2)cc1)C1CC1 (stereo not shown),6.24%
11,Oc1ccc(Nc2nnc(-c3ccc(O)cc3)c3ccccc23)cc1,24.3%
12,Cc1cc(C)c2c(N)c(C(=O)Nc3c(C)n(C)n(-c4ccccc4)c3=O)sc2n1,34.4%
13,O=C(OCC(=O)N1CCCCCC1)c1ccccc1Br,-17.4%
14,CCCCC#Cc1cncc(C(=O)NN)c1,0.845%
15,COc1ccc(OCC(=O)Nc2ccccc2C(=O)Nc2ccc(C(=O)O)cc2)cc1,0.622%
16,COc1cccc(N2CC(C(=O)Nc3c(C)cccc3C)CC2=O)c1 (stereo not shown),-2.79%
17,CC1(C)C(=O)OC(c2ccccc2)C(C)(C)C1=O (stereo not shown),-13.4%
18,O=C(CSc1ccc(-c2nc3ccccc3[nH]2)cn1)Nc1ccc(S(=O)(=O)N2CCCC2)cc1,4.31%
19,COc1cccc(CNC(=O)c2cc(S(=O)(=O)N3CCOCC3)ccc2N2CCCC2)c1,-14.4%
20,O=C(CCNC(=O)c1ccc(Br)cc1)NCC(c1ccco1)N1CCCCC1 (stereo not shown),-17.2%
21,CC(C)NC(=O)C1CCN(C(=O)c2cc3sccc3n2Cc2ccc(F)cc2)CC1,-3.2%
22,CCc1nc(SCC(=O)NCCc2ccccc2)c2oc3ccccc3c2n1,-17.4%
23,CC(C)c1ccc2[nH]c(O)c(N=NC(=S)NCCc3ccccc3)c2c1,22%
24,Cn1nnnc1SCC(=O)N1CCN(c2cccc(Cl)c2)CC1,-26.8%
25,CC(C)Oc1ccc(C(=O)Nc2ccc([N+](=O)[O-])cc2)cc1,0.142%
26,C=CCn1c(SCC(=O)Nc2nc3ccccc3s2)nnc1-c1ccccc1O,-16.7%
27,CCOC(=O)c1c(C)[nH]c(C(=O)COC(=O)CSCC(=O)N(CC)CC)c1C,0.618%
28,COCC(C)N1CCC(Oc2ccc(C(=O)NCc3ccccn3)cc2)CC1 (stereo not shown),13.1%

row,SMILES,"hERG current change (%, negative = inhibition) at 10uM"
1,NC(=O)CC(NC(=O)Cc1ccc(Br)cc1)c1ccc(NCCN2CCOCC2)c([N+](=O)[O-])c1 (stereo not shown),14.9%
2,COc1ccc([N+](=O)[O-])c(OC)c1C(=O)NC(=O)Nc1nc(C)cc(C)n1,18%
3,COc1ccccc1Nc1nc(-c2ccc([N+](=O)[O-])cc2)nc2ccccc12,0.467%
4,O=C(/C=C/c1ccc(F)cc1)NCCCn1ccnc1,-31.9%
5,Cc1ccc(NCCC(=O)c2cccc([N+](=O)[O-])c2)c(C)c1,-22.4%
6,Cc1ccc(Nc2cc(C(=O)NCCCN3CCOCC3)c3ccccc3n2)cc1C,-18.6%
7,CCCn1nc(C(=O)NC2CCCc3ccccc32)c2ccccc2c1=O (stereo not shown),-13.2%
8,FC(F)(F)COc1nc(N2CCOCC2)nc(N(c2ccccc2)c2ccccc2)n1,-11.6%
9,CN1CCN(C(CNC(=O)C(=O)Nc2ccc3c(c2)OCO3)c2ccc(F)cc2)CC1 (stereo not shown),-44.3%
10,COc1ccc(-c2c(C)nn(-c3ccccc3)c2N)cc1OC,-5.57%
11,CCOC(=O)c1ccc(NS(=O)(=O)c2cnc[nH]2)cc1,6.27%
12,N=c1n(-c2ccccc2)c(O)cc(=O)n1-c1ccccc1,-6.28%
13,O=C(Nc1ccccc1C(=O)NCc1ccco1)c1ccccc1,-20.4%
14,Cc1ccc(NC(=O)COC(=O)C2CC2(Cl)Cl)cc1C (stereo not shown),-4.06%
15,CC(C)(C)CN1C(=O)C(=O)NC[C@H]1Cc1cccc2ccccc12,-2.97%
16,COc1cc(C(=S)N2CCCC2)cc(OC)c1OC,5.49%
17,Cc1ccc(S(=O)(=O)c2cnc(-c3ccccc3)nc2N2CCN(C)CC2)cc1,-49.1%
18,O=C(Nc1nccs1)c1cn(-c2ccccc2)nc1-c1ccncc1,-9.65%
19,Cc1ccc(C(=O)CCC(=O)OCC(=O)NNC(=O)c2ccccc2Cl)cc1,-1.96%
20,COc1cc(/C=N/Nc2cc(C)nc(NS(=O)(=O)c3ccccc3)n2)ccc1O,1.84%
21,O=C1CCCCN1CCC(=O)N1CCCC(Nc2ccccc2)C1 (stereo not shown),24.3%
22,CC12CN(C(=O)c3ccc(Cl)cc3)C3(C#N)CC1CCC23C (stereo not shown),-23%
23,O=C1CCCN1c1ccc(N2CCCC2=O)cc1,28.4%
24,O=C(Nc1c2c(nn1-c1cccc(Cl)c1)CS(=O)(=O)C2)c1ccco1,-37.9%
25,O=C(Nc1cccc(C(F)(F)F)c1)C1CCCO1 (stereo not shown),13.5%
26,O=C(NS(=O)(=O)c1ccccc1)c1ccccc1F,3.38%
27,CN(C)C(CNC(=O)c1cccc(S(=O)(=O)N(C)C)c1)c1ccccc1 (stereo not shown),-5.71%
